Reference: the supplement of paper PMC11417369
± gives the standard deviation of the averaged measurements. The list shows a part of the results.

Tested on: PfAP2-I AP2 domain 3 (GST-tagged)
Assay: gcPBM binding intensity (ln(normalized median fluorescence intensity)); higher = stronger DNA binding
Summary of the method: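 Each value is the highest Masliner-normalised natural-log median intensity across replicate spots of either orientation of a probe. The probes were primer-extended double-stranded 36-bp intergenic genomic sequences on an Agilent 4 × 180k array, alongside negative controls, exposed for 1 h to GST-tagged P. falciparum DNA-binding domains expressed in E. coli. Bound protein was picked up with Alexa488 anti-GST antibody and scanned at 488 nm.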

| Sequence | gcPBM binding intensity (ln) |
| --- | --- |
| TCCTATAATAACGTCACACATTAAATTTAATAAATT [CACACA_site4506] | 7.93 ± 0.58 |
| CATACACCCATACATACACACATACATACACCCATA [CACACA_site5124] | 8.07 ± 0.35 |
| TCTTTTCAATTATCCTATATTCTTTTATTTTTAATT [GTGCAC_negctrl_site326] | 7.75 ± 0.61 |
| ATATCTAAATATATTACACACAGATATCTTCCTATA [CACACA_site3701] | 7.88 ± 0.61 |
| AACAAATAAAGCTATGACATGTTAAAATTGTTTCAC [XGTACX_negctrl_site67] | 7.49 ± 0.65 |
| ATTCGTATGAGCATAACACACAATATCGATATTTCT [CACACA_site4165] | 7.88 ± 0.5 |
| ATAAAGGAATTTTATACACACAACATATAAATATAT [CACACA_site7365] | 7.72 ± 0.47 |
| AGAGAAAAATATTTGGACAAAAATAATATAATATAT [CACACA_negctrl_site656] | 7.64 ± 0.73 |
| GATAAAGTAAAAATATGTACATATATATTTTAAGTT [XGTACX_site6439] | 7.85 ± 0.4 |
| TATATCTGTAAATGCACACATATGTGGATATACTTA [CACACA_site5013] | 10.41 ± 0.085 |
| TATAAATATAAATACACACACATATAGATTATAGAT [CACACA_site6429] | 7.72 ± 0.76 |
| TCTAATAATATATACACACACATATATATTTATATA [CACACA_site2032] | 7.71 ± 0.41 |
| TGCTACATTCTATGTACACACATATACATATATATA [CACACA_site893] | 8.16 ± 0.6 |
| GTTCATTCATTTTAATGTACAAATTTAACTTTTTCT [XGTACX_site680] | 7.61 ± 0.48 |
| AGAAATTATAAATACCTACACACTTATCAAAATAAA [CACACA_site2264] | 7.47 ± 0.57 |
| TAAGACATGATATATACACACCTTGTTTTAATTTTC [CACACA_site5282] | 7.75 ± 0.44 |
| AAATGAGAAGAAATACGTACATATAATAAAATAATT [XGTACX_site4439] | 8.03 ± 0.69 |
| ATACATATATAAATACGTACATATATAATTATATAT [XGTACX_site8178] | 7.79 ± 0.35 |
| ATGCATAAATTTTGAAGTACAAAAAAAAAAAATAAA [XGTACX_site7282] | 7.87 ± 0.24 |
| TCTGTAAAGTAATGGACACACAATATATCCATTTAT [CACACA_site1536] | 7.5 ± 0.52 |
| TTTCATTGGTTTATAAAATTATGAGATCTTAAAGAC [CACACA_negctrl_site1484] | 7.71 ± 0.52 |
| ATATATATATATATATGTACATATATTTATATTTAT [XGTACX_site6179] | 9.22 ± 0.57 |

| Sequence | gcPBM binding intensity (ln) |
| --- | --- |
| GAATAATATGGACATACACACATATACATACAGATA [CACACA_site5200] | 8 ± 0.33 |
| TTATATATCTATAATACACACATAATAATATATTTA [CACACA_site7423] | 7.79 ± 0.35 |
| GCTACGTAAAAAATATGTACATATGAAATATTTTGC [XGTACX_site5111] | 7.88 ± 0.61 |
| TTAACATTATATGAAGGTACAGAAAAAAAAAAATTA [XGTACX_site8530] | 7.61 ± 0.61 |
| TTTCTTATAGATTTTAATCCTCTATCAAAAAAAGAA [GTGCAC_negctrl_site162] | 7.63 ± 0.38 |
| AAATAAAAAAAATTTGCACACCTTCAAAGTAATATA [CACACA_site1583] | 8.995 ± 0.064 |
| CATACAGTATTATACTGTACCCATACAAAAAAATAT [XGTACX_site6130] | 7.89 ± 0.57 |
| CTTATTTAAGAGTATGAACACACATCATACACATAT [CACACA_site9205] | 7.67 ± 0.51 |
| TTTTTAATATTCTATGCATGCATCGCATATTTGGTT [TGCATGCA_site1004] | 7.67 ± 0.73 |
| AAAATATAATATAATGCACACATAAACAAAAAAAAA [CACACA_site8161] | 10.9 ± 0.74 |
| TTTTATTTAACTCATAATTTTTTAAAAAACAATTAT [XGTACX_negctrl_site19] | 7.7 ± 0.49 |
| TTTTTTTTTTTTTTGGGTACATAATAATAACAAGTG [XGTACX_site1034] | 7.9 ± 0.16 |
| CATGTAATATTAAACACACACTCATATAACTCAATA [CACACA_site4212] | 7.66 ± 0.47 |
| CACATATACTTCTGTGCACACGAATATTTTTCTTCT [CACACA_site1408] | 10.3 ± 0.26 |
| AATACATATTCAAAGGTGCAAAATAAAAATATACAT [GTGCAC_site9743] | 11.2 ± 0.44 |
| TTATAATAAGATTGTTGTACTTATATTCCTTCTATA [XGTACX_site3173] | 7.58 ± 0.59 |
| TCGTTTCATATTTATCATGAGATAATCACACGAACA [TGCATGCA_negctrl_site497] | 7.75 ± 0.47 |
| TGTTTTGTATATATAGCATGCAGTAAGGGAAAAAAA [TGCATGCA_site652] | 8.63 ± 0.73 |
| TAGTTATAAGAGTTACAAAGAATACCGGAAATATAG [CACACA_negctrl_site1829] | 8.03 ± 0.63 |
| AATGTCAATTTTAATAGTACACAAATATATATATAT [XGTACX_site521] | 9.15 ± 0.24 |
| AATGACCATTTTTAAAATTACAAATACATACAACTG [TGCATGCA_negctrl_site420] | 7.65 ± 0.48 |
| AAGTATTATTATAAGACACACATGTATTTAAGTATA [CACACA_site4922] | 7.74 ± 0.5 |

| Sequence | gcPBM binding intensity (ln) |
| --- | --- |
| TTTTATTCCTATTTATTTATATTTTTGTCTTATATC [CACACA_negctrl_site125] | 7.59 ± 0.85 |
| TTAAGAATATCTACATGTACATACCAAAGAAATACA [XGTACX_site3125] | 7.92 ± 0.38 |
| ATGAACAAAATGTAATGTACGAATAATTATTCATAT [XGTACX_site4812] | 7.79 ± 0.5 |
| GGAATAATATAAAACACACACATAAATATAAATATA [CACACA_site3376] | 7.72 ± 0.61 |
| TAATTTTTTTTTTTTTTTTTTTTTTTTTTTTTCCTT [CACACA_negctrl_site1095] | 7.33 ± 0.49 |
| TAATTTTTATTTATAATAATATATGACATATATCCA [XGTACX_negctrl_site359] | 7.44 ± 0.42 |
| AAAAAAAAGTTCTACACACACAAAAAAATATTTTTT [CACACA_site2309] | 7.6 ± 0.59 |
| TATAGACAAACACATACATGCATACATACATACATA [TGCATGCA_site273] | 8.21 ± 0.57 |
| GTGTGCTTTTTACGAGTGCAAGTATTTTGGTGGTTA [GTGCAC_site9496] | 9.88 ± 0.2 |
| GTACACATATAATATACACACAACAAATATGCACAT [CACACA_site1010] | 10.05 ± 0.021 |
| ATGATCATAAGACACACACACAAAAAAAAAAAAAAA [CACACA_site6936] | 8.12 ± 0.26 |
| CATATATATATATATTGTACAAGATTGTTTTTTTAT [XGTACX_site3913] | 7.88 ± 0.34 |
| TCTGTGCACGCATGAAGTACAAAAAAGGTTTCCAGT [XGTACX_site5049] | 9.895 ± 0.092 |
| CTATATACTAAATGCACACTTATATATTTATATATA [CACACA_site2454] | 10 ± 0.37 |
| TATATTTTTTTAATATGTACATATATATATAAAACA [XGTACX_site2171] | 7.88 ± 0.16 |
| TGAATTATAAATTATAGTACTTTATAATATGAACAT [XGTACX_site2317] | 7.64 ± 0.42 |
| ATATATAATAAATACACACACATGTATTTATAAATA [CACACA_site5135] | 7.79 ± 0.62 |
| ATATAAATAAATTAGTGAAAAAAAAAAAATTTTTTT [CACACA_negctrl_site945] | 7.49 ± 0.82 |
| AATTAACAAAGACACACACACACACGCACAAAAAAA [CACACA_site6388] | 8.41 ± 0.47 |
| TTTAAAAAAATATATACACACATATATATATATATA [CACACA_site617] | 9.44 ± 0.41 |
| CTCCATATGAAACACACACACAAATGAAAAAAATAT [CACACA_site3018] | 8.1 ± 0.54 |
| ATAGAAATAAAATAAAATAAAAAAAAAATAATGAAA [CACACA_negctrl_site1565] | 7.46 ± 0.59 |

| Sequence | gcPBM binding intensity (ln) |
| --- | --- |
| GTCAACTTGTGATAAGTGCATATATATAATAAAATG | 9.875 ± 0.078 |
| CGAAATAAATCTTATGCACACAAATAATTAATTAAA [CACACA_site8491] | 9.14 ± 0.26 |
| AAAAAAATATAATATTTGAATAAATATAATAATATG [XGTACX_negctrl_site477] | 7.33 ± 0.42 |
| AATATATAGGTATTTACACACAATGTGAGATCTATA [CACACA_site3407] | 7.54 ± 0.54 |
| ATTTATGAAAAGTAAAGTACACACAGGAAAAAAAAA [XGTACX_site3564] | 8.44 ± 0.74 |
| CCAATGAGGATATATACACACATACATTAAAAAAAT [CACACA_site5090] | 7.79 ± 0.61 |
| ATATATATGTATGTATGTACTTATTTATTTATTTAT [XGTACX_site7740] | 7.76 ± 0.44 |
| TAAGAAAAAGGCACACGTACATAATTCAAAATAAAT [XGTACX_site982] | 8.12 ± 0.22 |
| TTTTTTTTCACACATTGTACTTTTTTATAAAATATA [XGTACX_site4351] | 8.15 ± 0.61 |
| ATTTAAATAATATGTACACACATTTAAAAAATTATA [CACACA_site2816] | 8.02 ± 0.085 |
| ATAAAATAAATAAATATAAATATATATATATATATA [TGCATGCA_negctrl_site358] | 9.26 ± 0.46 |
| TATACATATTTACAAGTGCATAATATTTTACAAAAA | 10.4 ± 0.52 |
| GTTATAACTCAAATATGTACATATTATAAAACATAT [XGTACX_site6693] | 7.92 ± 0.47 |
| AAAAAAAAAAAAAAAGGTACACAAATACGTCCTGCA [XGTACX_site3354] | 8.9 ± 0.57 |
| TTATAGAACTATATTGCACACATAATATATATATAT [CACACA_site9042] | 10.3 ± 0.46 |
| TATAAAAATAAGCACACACACAAATATATATTTATT [CACACA_site922] | 8.12 ± 0.25 |
| TAATTATAATAAAAAGGTACAGAAAAGTTATACTCA [XGTACX_site6111] | 7.67 ± 0.44 |
| AATTATCAAAGTCTATACATACATACATACATACAT [GTGCAC_negctrl_site243] | 8.55 ± 0.61 |
| TATAAATAATAAAGATGTACTTTTTATGATTCCTAC [XGTACX_site7003] | 8 ± 0.31 |
| TATAAAAAGCAAAACAAAAAAACAAATTGAAAAATT [TGCATGCA_negctrl_site158] | 7.61 ± 0.91 |
| TTACTACTATATTATACACACATATATTTATTTATA [CACACA_site7274] | 8.06 ± 0.56 |
| CCGTAGTTTTAAAATAGTACTTTTATGGTTAATAAA [XGTACX_site3162] | 7.9 ± 0.35 |
